In PubChem BioAssay (Tox21):
Where “and” joins values, the source holds several entries; their conditions need not be identical. Equal entries are not always repeated. Inconclusive results, whose numbers are uncertain, are shown with a selection of clear calls. A potency beside an inconclusive call is a rough fit, not a confirmed value. Where a structure was tested more than once in an assay, its records may differ in their call. Calls of active or inactive are those of the source. Unless noted, calls follow the shape of the dose curve; as a rule, active = well fitted curve in the direction sought with a large enough effect in the repeat runs; inconclusive = weak or mixed curves; inactive = no such curve, though single readings can be large; an effect the other way counts as inactive or inconclusive.

Tests used:
[1] = qHTS assay to identify small molecule antagonists of the androgen receptor (AR) signaling pathway using the MDA cell line in the presence of 0.5 nM R1881 - cell viability counter screen (AID 1259242); also: nearly all actives have a fitted effect of over 45% in size
Procedure, shortened: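 Fluorescence from CellTiter-Fluor, which reports protease activity of live cells, was read 30 min after reagent addition to MDA-kb2 cells that had been incubated 16 hr with compound and 0.5 nM R1881.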

[2] = qHTS assay to identify small molecule HDAC inhibitors - cell viability counter screen (AID 1259365); also: nearly all actives have a fitted effect of over 50% in size
Procedure, shortened: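 Luminescence from CellTiter-Glo, developed 30min at room temperature, reports viability of wild-type HCT-116 cells treated 2hr with compounds at 37 C and 5% CO2 after overnight plating.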

[3] = qHTS assay to identify small molecule agonists of the sonic hedgehog signaling (Shh) pathway - cell viability counter screen (AID 1259366); also: nearly all actives have a fitted effect of over 50% in size
Procedure, shortened: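 Cytotoxicity counter screen run in the same wells as the Shh reporter assay. NIH/3T3 cells carrying a Gli1 response element–driven luciferase were treated with DMSO-dissolved compounds for 24hr, and live-cell protease activity was measured with CellTiter-Fluor.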

[4] = qHTS assay to identify small molecule antagonists of the sonic hedgehog signaling (Shh) pathway - cell viability counter screen (AID 1259367); also: nearly all actives have a fitted effect of over 55% in size
Procedure, shortened: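 NIH/3T3-derived Gli1-Luc reporter cells (2,000 per well) rested 4 hr at 37 C, then received DMSO compounds plus conditioned medium. After 23 hr of treatment, CellTiter-Fluor was added for 1 hr at 37C and fluorescence read.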

[5] = qHTS assay to identify small molecule antagonists of the sonic hedgehog signaling (Shh) pathway (AID 1259369; calls by dose curve; also: nearly all actives have a fitted effect of over 45% in size)
Procedure, shortened: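 Screening used 3T3Gli1-Luc cells at 2,000 per well, compounds delivered in DMSO, and conditioned medium as agonist stimulus; plates incubated 24hr at 37 C and 5% CO2 before a 30min luciferase step.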

[6] = qHTS assay to identify small molecule HDAC inhibitors (AID 1259364); also: nearly all actives have a fitted effect of over 45% in size
Procedure, shortened: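 Endogenous HDAC class I/II activity was measured in wild-type HCT-116 cells by HDAC-Glo luminescence after 2 h compound treatment.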

[7] = qHTS assay to identify small molecule phospholipidosis (PLD) inducers (AID 1259344; active = well fitted curve in the direction sought with a large enough effect; inconclusive = small, poorly fitted or top-dose-only effect, or another doubt; inactive = no such curve, though single readings can be large; an effect the other way counts as inactive or inconclusive)
Procedure, shortened: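 HepG2 cells on collagen I, attached 4 h at 37 C, were co-treated with compound and LipidTOX Red dye for 24 h at 37 C, then fixed with paraformaldehyde plus Hoechst 33342 and imaged by high-content microscopy for phospholipid accumulation.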
Potency is read from the fitted curve at half-maximal effect; tags tell the direction and shape of the fitted curve.

NC(=NCCCCCCN=C(N)/N=C(\N)Nc1ccc(Cl)cc1)/N=C(\N)Nc1ccc(Cl)cc1
Potency [1]: inconclusive: 68 µM [cytotoxic, single point] | Potency [2]: inconclusive: 60.9 µM [cytotoxic, single point] [middle of 4 runs] | Potency [3]: inconclusive: 60.9 µM [cytotoxic] and inconclusive: 29.8 µM [cytotoxic, partial curve, poor fit] | Potency [4]: inconclusive: 60.9 µM [cytotoxic, single point] [middle of 4 runs] | Potency [5]: inconclusive: 62.2 µM [inhibitor, single point] and inconclusive: 37.6 µM [inhibitor, single point]

O=S(=O)(O)c1cc(S(=O)(=O)O)c2c(N=Nc3ccccc3)c(O)ccc2c1
Potency [1]: inconclusive: 54.7 µM [cytotoxic, partial curve] and inconclusive: 48.6 µM [cytotoxic, partial curve] | Potency [3]: inconclusive: 30.8 µM [cytotoxic, partial curve] and inconclusive: 30.6 µM [cytotoxic] | Potency [4]: inconclusive: 30.8 µM [cytotoxic, partial curve] and inconclusive: 68.6 µM [cytotoxic, single point]

C[C@@]12C(=O)OC(=O)[C@]1(C)C1CCC2O1
Potency [1]: inconclusive: 7.5 µM [cytotoxic, full curve] | Potency [2]: inconclusive: 3.76 µM [rising, full curve] | Potency [3]: active: 1.5 µM | Potency [5]: active: 1.68 µM

Nc1nc2ccc([N+](=O)[O-])cc2s1
Potency [1]: inconclusive: 68.6 µM [cytotoxic, partial curve, poor fit] | Potency [6]: active: 17.7 µM | Potency [3]: inconclusive: 27.3 µM [cytotoxic] | Potency [4]: inconclusive: 27.3 µM [cytotoxic] | Potency [5]: active: 48.6 µM

C=CC(=O)OCCn1c(=O)n(CCOC(=O)C=C)c(=O)n(CCOC(=O)C=C)c1=O
Potency [1]: inconclusive: 30.6 µM [cytotoxic, partial curve] | Potency [2]: inconclusive: 48.6 µM [rising, partial curve] | Potency [3]: active: 10.9 µM

Oc1ccc(Cl)c2cccnc12
Potency [1]: inconclusive: 10.6 µM [cytotoxic, full curve] | Potency [3]: inconclusive: 2.98 µM [cytotoxic, full curve]

CCN(CC)CCOc1ccc(C(O)(Cc2ccc(Cl)cc2)c2ccc(C)cc2)cc1 (stereo unspecified)
Potency [1]: inconclusive: 29.8 µM [cytotoxic, single point] | Potency [3]: inconclusive: 33.5 µM [cytotoxic, single point] | Potency [4]: inconclusive: 33.5 µM [cytotoxic, single point]

CN(C)c1ccc(N=NS(=O)(=O)O)cc1
Potency [1]: active: 27.3 µM | Potency [6]: inconclusive: 7.24 µM [inhibitor, partial curve, poor fit] | Potency [4]: inconclusive: 25.6 µM [cytotoxic, single point] | Potency [5]: active: 12.2 µM

CCCCCCCCCCCC[N+](C)(C)CCCCCCCCCCCC
Potency [1]: active: 27.3 µM | Potency [2]: active: 54.5 µM | Potency [3]: active: 24.3 µM | Potency [5]: inconclusive: 10.9 µM [inhibitor, full curve]

CCCCCCOC(=O)NC(=N)c1ccc(NCc2nc3cc(C(=O)N(CCC(=O)OCC)c4ccccn4)ccc3n2C)cc1
Potency [1]: active: 26.6 µM | Potency [6]: inconclusive: 11.9 µM [inhibitor, partial curve] | Potency [3]: inconclusive: 29.8 µM [cytotoxic] | Potency [4]: inconclusive: 26.6 µM [cytotoxic, partial curve]

CCCCCOC(=O)CCCC
Potency [1]: inactive | Potency [2]: inactive

C[C@@H]1CN(CCCn2c3ccccc3c3ccccc32)C[C@H](C)N1
Potency [1]: inconclusive: 26.6 µM [cytotoxic, partial curve] | Potency [7]: active: 10 µM | Potency [5]: active: 10.6 µM

Nc1ccc(O)c([N+](=O)[O-])c1
Potency [1]: inconclusive: 43.3 µM [cytotoxic, partial curve] | Potency [6]: inconclusive: 68.6 µM [inhibitor, partial curve, poor fit] | Potency [3]: active: 43.3 µM

O=C(Nc1cccc(Cl)c1)OCC#CCCl
Potency [1]: active: 61.1 µM | Potency [3]: active: 27.3 µM

COc1ccccc1N1CCN(CCCCNC(=O)c2ccc(-c3ccc(C(C)=O)cc3)cc2)CC1
Potency [1]: inconclusive: 5.31 µM [cytotoxic, full curve, poor fit] | Potency [7]: inconclusive: 1.41 µM [activator, full curve] | Potency [5]: inconclusive: 1.06 µM [inhibitor, full curve, poor fit]

CC1=C(Br)C(=O)C(Br)=C/C1=C(/c1ccccc1S(=O)(=O)O)c1cc(Br)c(O)c(Br)c1C
Potency [1]: active: 18.6 µM | Potency [6]: active: 7.39 µM | Potency [2]: active: 18.6 µM | Potency [5]: inconclusive: 29.4 µM [inhibitor, partial curve, poor fit]

O=[N+]([O-])c1ccc(Nc2ccc(Nc3ccccc3)c(S(=O)(=O)O)c2)c([N+](=O)[O-])c1
Potency [1]: inconclusive: 61.1 µM [cytotoxic, partial curve, poor fit] | Potency [3]: inconclusive: 54.5 µM [cytotoxic] | Potency [4]: inconclusive: 43.3 µM [cytotoxic, partial curve]

CCN1/C(=C/C=C/c2sc3ccccc3[n+]2CC)Sc2ccccc21
Potency [1]: active: 0.82 µM | Potency [7]: active: 22.4 µM

CC[C@H]1CN2CCc3cc(OC)c(OC)cc3[C@@H]2C[C@@H]1C[C@H]1NCCc2cc(OC)c(OC)cc21
Potency [1]: inconclusive: 1.94 µM [cytotoxic, partial curve] and inconclusive: 841 nM [cytotoxic, full curve] | Potency [3]: inconclusive: 4.73 µM [cytotoxic]

CCN(CC)c1ccc(C(=C2C=CC(=[N+](CC)CC)C=C2)c2cc(S(=O)(=O)O)ccc2S(=O)(=O)[O-])cc1
Potency [1]: inconclusive: 21.1 µM [cytotoxic, partial curve] | Potency [2]: active: 11.9 µM | Potency [3]: inconclusive: 11.9 µM [cytotoxic, partial curve] | Potency [4]: inconclusive: 21.1 µM [cytotoxic, partial curve]

Oc1ccc2ccccc2c1N=Nc1ccccc1
Potency [1]: inconclusive: 30.6 µM [cytotoxic, partial curve] and inconclusive: 24.3 µM [cytotoxic, partial curve] | Potency [3]: active: 34.3 µM and inconclusive: 17.2 µM [cytotoxic, full curve] | Potency [4]: inconclusive: 27.3 µM [cytotoxic, partial curve] | Potency [5]: inconclusive: 38.5 µM [inhibitor, partial curve, poor fit]

Nc1ccc(N=Nc2ccccc2)c(N)n1
Potency [1]: inconclusive: 48.8 µM [cytotoxic, partial curve] and inconclusive: 27.3 µM [cytotoxic, partial curve] and inconclusive: 21.1 µM [cytotoxic, partial curve, poor fit] | Potency [3]: inconclusive: 13.3 µM [cytotoxic, partial curve] | Potency [4]: inconclusive: 18.8 µM [cytotoxic, partial curve] | Potency [5]: inconclusive: 38.6 µM [inhibitor, partial curve, poor fit]

CNC(=O)c1ccccc1Sc1ccc2c(/C=C/c3ccccn3)n[nH]c2c1
Potency [1]: inconclusive: 29.8 µM [cytotoxic, partial curve] | Potency [3]: active: 13.3 µM | Potency [4]: inconclusive: 33.5 µM [cytotoxic, partial curve, poor fit] | Potency [5]: inconclusive: 11.9 µM [inhibitor, partial curve, poor fit]

CN1CCCC(CC2c3ccccc3Sc3ccccc32)C1 (stereo unspecified)
Potency [1]: inconclusive: 33.5 µM [cytotoxic, single point] | Potency [3]: inconclusive: 18.8 µM [cytotoxic, partial curve] | Potency [4]: inconclusive: 11.9 µM [cytotoxic, partial curve]

Nc1ccc(N=Nc2ccccc2)c(N)c1
Potency [1]: inconclusive: 47.5 µM [cytotoxic, partial curve] | Potency [3]: inconclusive: 26.7 µM [cytotoxic, partial curve] | Potency [4]: inconclusive: 30 µM [cytotoxic, partial curve]

O=C(Nc1ccc(Cl)c(Cl)c1)c1cc(Cl)cc(Cl)c1O
Potency [1]: inconclusive: 6.86 µM [cytotoxic, full curve] | Potency [3]: inconclusive: 54.5 µM [cytotoxic, partial curve, poor fit] | Potency [4]: inconclusive: 17.2 µM [cytotoxic, full curve, poor fit]

Nc1ccc([N+](=O)[O-])cc1O
Potency [1]: inconclusive: 27.3 µM [cytotoxic, partial curve] | Potency [6]: inconclusive: 56.1 µM [inhibitor] | Potency [3]: active: 30.6 µM | Potency [5]: inconclusive: 17.2 µM [inhibitor, full curve]

CC(=O)[C@H]1CC[C@H]2[C@@H]3CCC4=CC(=O)CC[C@]4(C)[C@H]3CC[C@]12C
Potency [1]: inconclusive: 68.6 µM [cytotoxic, partial curve, poor fit] | Potency [3]: inconclusive: 12.1 µM [rising, partial curve, poor fit]

Clc1nc2ccccc2nc1Cl
Potency [1]: inconclusive: 43.8 µM [cytotoxic, partial curve, poor fit] | Potency [3]: inactive

CCOC(=O)[C@H](CCc1ccccc1)N[C@H]1CCc2ccccc2N(CC(=O)O)C1=O
Potency [1]: inconclusive: 33.5 µM [cytotoxic, partial curve, poor fit] | Potency [4]: inconclusive: 13.3 µM [cytotoxic, full curve]
